# In PubChem BioAssay AID504332 (National Center for Advancing Translational Sciences (NCATS), 2011):
# Several values for one entry are separate records, joined by “and”; a condition that tells them apart may be missing. Equal values may be shown once. About 31,000 (8.9%) of roughly 350,000 compounds were called active. Inconclusive results, whose numbers are uncertain, are shown with a selection of clear calls. The call rests on the fitted dose curve; in most records, active means well fitted inhibition curve with a large enough effect; inconclusive means small, poorly fitted or top-dose-only effect; inactive means no such curve, though single readings can be large or run the other way. Potencies of inconclusive entries are doubtful fits and often do not repeat.
# Molecular target: Histone-lysine N-methyltransferase EHMT2 (Homo sapiens) (UniProt Q96KQ7)
# UniProt Q96KQ7, sequence (Q96KQ7 whole entry, looked up): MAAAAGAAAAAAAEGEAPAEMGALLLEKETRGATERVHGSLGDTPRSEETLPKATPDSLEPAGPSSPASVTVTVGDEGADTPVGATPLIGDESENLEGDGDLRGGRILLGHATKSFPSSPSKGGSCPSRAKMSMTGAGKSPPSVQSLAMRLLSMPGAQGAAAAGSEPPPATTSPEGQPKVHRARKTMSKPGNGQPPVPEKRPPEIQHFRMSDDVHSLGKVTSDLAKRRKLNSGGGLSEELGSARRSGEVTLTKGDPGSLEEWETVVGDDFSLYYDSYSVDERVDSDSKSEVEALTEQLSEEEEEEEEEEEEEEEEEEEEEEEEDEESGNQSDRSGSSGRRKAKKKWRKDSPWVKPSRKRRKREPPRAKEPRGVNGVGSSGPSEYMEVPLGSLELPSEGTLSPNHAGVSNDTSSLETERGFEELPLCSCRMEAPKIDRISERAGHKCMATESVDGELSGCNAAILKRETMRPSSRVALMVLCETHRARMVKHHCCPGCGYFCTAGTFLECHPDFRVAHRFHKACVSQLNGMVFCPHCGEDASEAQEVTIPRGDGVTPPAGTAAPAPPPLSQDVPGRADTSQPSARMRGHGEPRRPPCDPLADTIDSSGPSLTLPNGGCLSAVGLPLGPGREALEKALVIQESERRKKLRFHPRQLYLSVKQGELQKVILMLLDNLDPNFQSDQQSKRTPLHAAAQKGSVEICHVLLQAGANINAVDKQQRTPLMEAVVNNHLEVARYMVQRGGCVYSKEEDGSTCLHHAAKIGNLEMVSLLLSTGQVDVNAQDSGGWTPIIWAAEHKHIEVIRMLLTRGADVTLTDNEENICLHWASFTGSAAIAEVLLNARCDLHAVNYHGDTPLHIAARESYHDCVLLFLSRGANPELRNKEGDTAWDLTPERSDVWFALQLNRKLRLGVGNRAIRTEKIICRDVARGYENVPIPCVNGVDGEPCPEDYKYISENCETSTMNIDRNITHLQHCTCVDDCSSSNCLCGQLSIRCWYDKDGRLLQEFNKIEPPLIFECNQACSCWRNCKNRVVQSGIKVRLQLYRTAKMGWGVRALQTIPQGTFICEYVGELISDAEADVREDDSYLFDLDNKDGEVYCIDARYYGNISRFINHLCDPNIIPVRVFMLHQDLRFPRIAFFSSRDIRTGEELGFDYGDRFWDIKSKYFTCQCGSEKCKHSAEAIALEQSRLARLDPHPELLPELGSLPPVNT
# Test: qHTS Assay for Inhibitors of Histone Lysine Methyltransferase G9a; further: nearly all actives have a fitted effect of over 75% in size
# Details: G9a H3K9 monomethylation, AlphaScreen, 2 h; activity, negative = inhibition: at 59 µM (top of the series) unless noted
# In short: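 Signal arises when biotinylated H3K9 peptide, once monomethylated, bridges streptavidin donor and antibody-captured acceptor beads. Enzyme at 20 nM was preincubated 15 min with test compounds; peptide 500 nM and SAM 20 uM then reacted for 2 h.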
# On the % scale 0 is the no-effect control and ±100 the full control effect; potency means the concentration at half of the fitted maximal effect; tags describe the fitted curve by direction and shape.
SMILES,Potency,"activity, negative = inhibition"
COc1ccc(C(c2c(C)[nH]n(C(N)=S)c2=O)C(C#N)C#N)cc1 (configuration not stated),"inconclusive: 20 µM [inhibitor, single point]",–
C=CCNC(=O)C(=O)N/N=C/c1cccc(Br)c1,inactive,–
COc1ccc(-c2[nH]c(-c3ccc4c(c3)OCO4)nc2-c2ccccc2)cc1,–,inconclusive: -72% [inhibitor]
Oc1cccc2ccc[n+](CC(O)Cn3c4ccccc4c4ccccc43)c12 (configuration not stated),active: 7.94 µM,–
O=[N+]([O-])c1cc([N+](=O)[O-])c(N2CCOCC2)cc1NCc1ccccc1,"inconclusive: 25.1 µM [inhibitor, single point]",–
COC(=O)c1ccc(C)c(NC(=O)CSc2sc3c(O)cc(=O)[nH]c3c2C#N)c1,"inconclusive: 8.91 µM [inhibitor, partial curve, poor fit]",–
O=C(O)c1ccc(S(=O)(=O)N2CCC(Cc3ccccc3)CC2)cc1,"inconclusive: 79.4 µM [inhibitor, partial curve, poor fit]",–
COc1ccc(CCNC(=O)c2noc(C)c2[N+](=O)[O-])cc1OC,inactive,–
Cc1cc(C)c2nc(SCC(=O)N(C)C3CCS(=O)(=O)C3)cc(C)c2c1 (configuration not stated),active: 44.7 µM,–
COc1ccc(N2CCN(S(=O)(=O)CCNC(=O)/C=C/c3ccc4c(c3)OCO4)CC2)cc1,"inconclusive: 89.1 µM [inhibitor, single point]",–
COc1ccc(OC)c(Nc2c3c(nc4ccccc24)CCC3)c1,inactive,–
CC(=O)Nc1ccc2c(c1)nc1n2CCN(C(C)c2ccccc2)C1 (configuration not stated),–,inconclusive: -95.1% [inhibitor]
Cc1ccc(C(=O)C2=C(O)C(=O)N(c3ncccn3)C2c2ccc(F)cc2)o1 (configuration not stated),"inconclusive: 56.2 µM [inhibitor, partial curve, poor fit]",–
Nn1c(SCC(=O)Nc2nccs2)nnc1C1CC1,active: 39.8 µM,–
COc1ccc(NC(=O)CSc2nc3nc(-c4cccs4)cc(C(F)(F)F)c3c(=O)[nH]2)c(OC)c1,"inconclusive: 25.1 µM [inhibitor, single point]",–
O=C(C1CCN(S(=O)(=O)c2cccs2)CC1)N1CCN(Cc2ccccc2)CC1,"inconclusive: 28.2 µM [inhibitor, partial curve, poor fit]",–
O=C(O)c1cccc(Nc2ccc([N+](=O)[O-])c3nonc23)c1,active: 70.8 µM,–
CCOC(=O)c1sc2nc(C)n(N)c(=O)c2c1C,inactive,–
C/C(=N\Nc1nc2c(s1)CCCC2)c1ccc(Cl)cc1,–,inconclusive: -105% [inhibitor]
COc1cccc(NC(=O)CN(C)C(=O)c2ccc(-c3cccc(C(F)(F)F)c3)o2)c1,inactive,–
O=C1CN(C(=O)COC(=O)c2oc3ccccc3c2COc2ccccc2)c2ccccc2N1,"inconclusive: 79.4 µM [inhibitor, partial curve, poor fit]",–
CCOC(=O)C1CCCN(C(=O)c2ccc(NC(=O)c3nsc4ccccc34)cc2)C1 (configuration not stated),inactive,–
Cc1[nH]c2ccccc2c1/C=N/NC(=O)CCC(=O)Nc1ccccc1,inactive,–
Cc1ccccc1Nc1c(-c2ccccn2)nc2ccccn12,active: 39.8 µM,–

SMILES,Potency,"activity, negative = inhibition"
COc1ccc(/C(O)=C2/C(=O)C(=O)N(CC3CCCO3)C2c2ccc(OC)c(OC)c2)cc1 (configuration not stated),"inconclusive: 79.4 µM [inhibitor, single point]",–
COc1ccc(OCCn2ccnc2C)cc1,active: 8.91 µM,–
COc1ccc(CCc2nnc(NS(C)(=O)=O)s2)cc1,"inconclusive: 89.1 µM [inhibitor, single point]",–
Cc1ccc(C)c(S(=O)(=O)NCCN2CCOCC2)c1,–,inactive: 25.5% [at 0.501 µM]
O=C(COC(=O)c1cc(F)cc(F)c1)NCCCc1ccccc1,–,inactive: 11% [at 2.33 µM]
Cc1cc(/C=N/NC(=O)CC2(C)OCCO2)c(C)n1-c1cc(Cl)cc(Cl)c1,"inconclusive: 39.8 µM [inhibitor, single point]",–
O=C(CCn1cnc2onc(-c3ccc(F)cc3)c2c1=O)N1CCN(c2ccccc2F)CC1,inactive,–
O=C(OCC(=O)N1CCc2ccccc21)[C@@H]1CCCN1S(=O)(=O)c1ccccc1F,"inconclusive: 10 µM [inhibitor, single point]",–
COc1ccc(Cl)cc1-n1c(=S)sc2c(=O)[nH]c(SCC(=O)C(C)(C)C)nc21,inactive,–
C=CCn1c(-c2cc(-c3ccc(C)cc3)nc3ccccc23)n[nH]c1=S,active: 14.1 µM,–
COc1ccc(/C=C2/C(=O)N(Cc3ccccc3)N=C2C)cc1,inactive,–
CCN(CC(=O)Nc1ccc(NC(C)=O)cc1)C(=O)c1ccc(=O)[nH]c1,"inconclusive: 70.8 µM [inhibitor, partial curve, poor fit]",–
O=C(CC1Nc2cccc3cccc(c23)NC1=O)Nc1ccc(F)cc1 (configuration not stated),"inconclusive: 1.78 µM [inhibitor, full curve] and inconclusive: 12.6 µM [inhibitor, full curve, poor fit]",–
c1ccc2oc(-c3[nH]ncc3CN3CCC(N4CCSCC4)CC3)cc2c1,"inconclusive: 2.82 µM [inhibitor, partial curve, poor fit]",–
Oc1ccc(Cl)cc1N=Cc1sc2ccccc2c1Cl,"inconclusive: 4.47 µM [inhibitor, full curve, poor fit]",–
CCOC(=O)c1cc(C#N)c(SCC(=O)Nc2ccc(C(C)=O)cc2)[nH]c1=O,"inconclusive: 79.4 µM [inhibitor, partial curve, poor fit]",–
O=C(/C=C/c1ccccc1)NCC(=O)N/N=C/c1cccs1,inactive,–
C/C(=N\NC(N)=S)C1C2C3CC4C5CC(C42)C1C53 (configuration not stated),active: 39.8 µM,–
COc1ccccc1CNC(=O)[C@H](C)NC(=O)[C@@H]1Cc2ccccc2CN1,"inconclusive: 79.4 µM [inhibitor, single point]",–
CN(CCO)c1cc(NCCCN2CCC(Cc3ccccc3)CC2)c2nonc2c1[N+](=O)[O-],"inconclusive: 79.4 µM [inhibitor, partial curve, poor fit]",–
O=C1CC(c2ccco2)c2ccc3ccccc3c2N1 (configuration not stated),active: 50.1 µM,–
CCN(CC)c1ccc(/C=C/c2cccc[n+]2C)c(OC)c1,active: 35.5 µM,–
Cc1onc(-c2ccccc2)c1CNC(=O)CN1C(=O)c2ccccc2C1=O,"inconclusive: 70.8 µM [inhibitor, partial curve, poor fit]",–
COc1cccc(C=Nc2cc(C)on2)c1O,"inconclusive: 2 µM [inhibitor, full curve, poor fit]",–

SMILES,Potency,"activity, negative = inhibition"
CCCOC(=O)c1ccc(NC(=O)CCC(=O)OCC)cc1,"inconclusive: 89.1 µM [inhibitor, single point]",–
CCc1ccccc1NC(=O)CSc1ccsc1[N+](=O)[O-],"inconclusive: 22.4 µM [inhibitor, single point]",–
COc1ccc(CN2CCN(S(=O)(=O)c3ccc(C)cc3)CC2)cc1Br,active: 7.08 µM,–
Cc1cc(C)c(NC(=S)NC(CO)(CO)CO)c(C)c1,active: 10 µM,–
COc1cccc2cc(S(=O)(=O)c3ccccc3)c(=Nc3ccc4c(c3)OCCO4)oc12,"inconclusive: 25.1 µM [inhibitor, partial curve]",–
Cc1ccc(-n2nnnc2CNC(=O)c2ccccc2C)cc1C,inactive,–
CN(C)c1ccc(CNC(=O)Cn2ccc3cc(S(=O)(=O)N4CCCCCC4)ccc32)cc1,"inconclusive: 7.94 µM [inhibitor, partial curve, poor fit]",–
O=c1cnc2ccccc2n1CC1CCCCC1,"inconclusive: 89.1 µM [inhibitor, single point]",–
COCC(C)n1c(C)cc(C(=O)COC(=O)CN=C2NS(=O)(=O)c3ccccc32)c1C (configuration not stated),"inconclusive: 89.1 µM [inhibitor, single point]",–
CC(=O)c1ccc(OCC(O)CN2CCN(Cc3ccc4c(c3)OCO4)CC2)cc1 (configuration not stated),"inconclusive: 39.8 µM [inhibitor, single point]",inconclusive: -72.4% [inhibitor]
CCn1c(Cc2ccccc2)nnc1SCC(=O)Nc1nc(C)cs1,"inconclusive: 22.4 µM [inhibitor, single point]",–
CCN1C(=O)/C(=C\N(C)C)c2ccccc21,inactive,–
CCOC(=O)c1c(C)[nH]c(CCC(=O)NCCCN2CCN(c3ccccc3F)CC2)c1C,inactive,–
Cc1nc2nc(CSc3nc4ccccc4s3)cc(=O)n2[nH]1,"inconclusive: 3.16 µM [inhibitor, single point]",–
COc1cc(Cl)c(C)cc1NC(=O)c1cnn(-c2ccc(C)cc2)c1-n1cccc1,inactive,–
COC(=O)c1cc(=O)n(Cc2ccc3c(c2)OCO3)c(=Nc2ccc(F)c(Cl)c2)s1,"inconclusive: 89.1 µM [inhibitor, single point]",–
COc1cc(C(=O)NC2CC(C)(C)Cc3c2cnn3-c2ccccc2)cc(OC)c1OC (configuration not stated),inactive,–
CCOC(=O)Cc1csc(SCC(=O)NC2CCCC2)n1,inactive,–
COc1ccc(OC)c(NC(=O)CCn2c(=S)[nH]c3ccccc3c2=O)c1,inactive,–
Cc1ccc(N2C(SCC(=O)O)=NC(=Nc3cccc(C)c3)C23CCCC3)cc1,inactive,–
CN1CCc2c(sc3c2C(=O)NC(c2cccs2)N3)C1 (configuration not stated),–,inconclusive: -90.1% [inhibitor]
CN(C)CC(C)(C)CNC(=S)Nc1cc(S(=O)(=O)N2CCOCC2)ccc1Cl,"inconclusive: 28.2 µM [inhibitor, partial curve]",–
Cc1nc2ccccc2nc1CSc1nnc(N)s1,"inconclusive: 3.16 µM [inhibitor, single point]",–
